Reference: paper PMC4667695
Results are given in words; binding and its absence hold for the method and conditions named. Some entries that bind do so weakly or less than the wild type. Where a sequence is shown, tags or fusion partners need not be part of it.

Sequences of proteins named here, by UniProt entry; tags and fusion partners are left off.
UniProt P49597: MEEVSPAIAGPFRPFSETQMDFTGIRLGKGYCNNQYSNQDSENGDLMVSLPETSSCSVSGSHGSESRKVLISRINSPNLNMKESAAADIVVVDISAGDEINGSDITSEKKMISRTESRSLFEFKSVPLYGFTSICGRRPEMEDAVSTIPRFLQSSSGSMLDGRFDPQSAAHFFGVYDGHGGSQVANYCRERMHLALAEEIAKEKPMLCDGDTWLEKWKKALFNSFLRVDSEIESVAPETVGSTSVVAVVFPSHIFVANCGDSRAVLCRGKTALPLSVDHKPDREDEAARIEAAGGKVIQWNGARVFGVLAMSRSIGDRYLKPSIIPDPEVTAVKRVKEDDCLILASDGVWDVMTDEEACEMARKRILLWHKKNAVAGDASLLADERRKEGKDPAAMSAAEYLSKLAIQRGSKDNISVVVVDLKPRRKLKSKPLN

Assays:
Assay in all cases: two-hybrid; Gal4 system in yeast AH109; PUB12/13 or other genes and ABI1 in pGBKT7 (BD) and pGADT7 (AD); growth on -Trp/-Leu/-His medium, 28 °C, 4-5 days; 30 mM 3-AT where the BD fusion self-activated
[1] = target: T1, PUB60 (yeast two-hybrid fusion, BD) (Arabidopsis thaliana) (UniProt O22785)
T1 sequence: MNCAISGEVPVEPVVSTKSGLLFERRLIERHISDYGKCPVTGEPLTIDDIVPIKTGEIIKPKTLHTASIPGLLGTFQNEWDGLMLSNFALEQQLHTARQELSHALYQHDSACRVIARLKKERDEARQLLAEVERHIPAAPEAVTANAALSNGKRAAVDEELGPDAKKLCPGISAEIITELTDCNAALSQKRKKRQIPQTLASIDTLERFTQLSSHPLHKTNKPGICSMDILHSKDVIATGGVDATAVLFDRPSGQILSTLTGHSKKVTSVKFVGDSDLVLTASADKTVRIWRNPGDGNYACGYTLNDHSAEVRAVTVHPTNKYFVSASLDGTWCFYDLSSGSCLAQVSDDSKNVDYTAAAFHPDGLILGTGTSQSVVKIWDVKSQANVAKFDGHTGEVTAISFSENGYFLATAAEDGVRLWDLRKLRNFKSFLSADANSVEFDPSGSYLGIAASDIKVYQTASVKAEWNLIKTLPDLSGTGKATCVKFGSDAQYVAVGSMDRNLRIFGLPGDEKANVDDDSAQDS

[2] = target: T2, PUB44 (yeast two-hybrid fusion, BD) (Arabidopsis thaliana) (UniProt Q9LM76)
T2 sequence: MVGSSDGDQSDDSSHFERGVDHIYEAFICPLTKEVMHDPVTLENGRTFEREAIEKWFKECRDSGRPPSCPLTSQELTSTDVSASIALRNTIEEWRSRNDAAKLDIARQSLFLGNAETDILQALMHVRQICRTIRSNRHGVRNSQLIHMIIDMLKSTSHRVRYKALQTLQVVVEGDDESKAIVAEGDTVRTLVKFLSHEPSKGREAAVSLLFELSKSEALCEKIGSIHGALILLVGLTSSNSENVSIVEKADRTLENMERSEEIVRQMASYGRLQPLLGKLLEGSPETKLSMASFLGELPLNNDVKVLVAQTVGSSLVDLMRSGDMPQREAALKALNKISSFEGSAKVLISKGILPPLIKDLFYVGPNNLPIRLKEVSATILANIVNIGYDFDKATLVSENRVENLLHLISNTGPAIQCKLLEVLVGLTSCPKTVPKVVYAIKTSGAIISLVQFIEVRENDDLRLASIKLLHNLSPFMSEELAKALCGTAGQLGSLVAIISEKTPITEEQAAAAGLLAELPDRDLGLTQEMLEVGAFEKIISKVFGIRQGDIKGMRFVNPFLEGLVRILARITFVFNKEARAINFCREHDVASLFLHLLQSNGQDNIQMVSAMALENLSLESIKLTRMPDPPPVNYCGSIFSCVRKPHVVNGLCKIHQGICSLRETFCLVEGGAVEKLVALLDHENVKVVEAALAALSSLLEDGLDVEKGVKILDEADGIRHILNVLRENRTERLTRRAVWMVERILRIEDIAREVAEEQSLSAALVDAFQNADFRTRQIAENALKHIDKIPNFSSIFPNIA

[3] = target: T3, SDIR1 (yeast two-hybrid fusion, BD) (Arabidopsis thaliana) (UniProt Q9M2S6)
T3 sequence: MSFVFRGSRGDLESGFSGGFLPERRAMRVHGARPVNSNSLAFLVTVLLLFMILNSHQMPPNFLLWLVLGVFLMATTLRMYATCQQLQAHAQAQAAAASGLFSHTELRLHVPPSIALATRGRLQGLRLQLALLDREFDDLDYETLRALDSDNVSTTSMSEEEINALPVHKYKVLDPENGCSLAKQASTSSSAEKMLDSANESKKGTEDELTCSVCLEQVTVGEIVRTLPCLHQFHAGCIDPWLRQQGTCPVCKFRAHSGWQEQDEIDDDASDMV

[4] = target: T4, PUB12 (yeast two-hybrid fusion, BD) (Arabidopsis thaliana) (UniProt Q9ZV31)
T4 sequence: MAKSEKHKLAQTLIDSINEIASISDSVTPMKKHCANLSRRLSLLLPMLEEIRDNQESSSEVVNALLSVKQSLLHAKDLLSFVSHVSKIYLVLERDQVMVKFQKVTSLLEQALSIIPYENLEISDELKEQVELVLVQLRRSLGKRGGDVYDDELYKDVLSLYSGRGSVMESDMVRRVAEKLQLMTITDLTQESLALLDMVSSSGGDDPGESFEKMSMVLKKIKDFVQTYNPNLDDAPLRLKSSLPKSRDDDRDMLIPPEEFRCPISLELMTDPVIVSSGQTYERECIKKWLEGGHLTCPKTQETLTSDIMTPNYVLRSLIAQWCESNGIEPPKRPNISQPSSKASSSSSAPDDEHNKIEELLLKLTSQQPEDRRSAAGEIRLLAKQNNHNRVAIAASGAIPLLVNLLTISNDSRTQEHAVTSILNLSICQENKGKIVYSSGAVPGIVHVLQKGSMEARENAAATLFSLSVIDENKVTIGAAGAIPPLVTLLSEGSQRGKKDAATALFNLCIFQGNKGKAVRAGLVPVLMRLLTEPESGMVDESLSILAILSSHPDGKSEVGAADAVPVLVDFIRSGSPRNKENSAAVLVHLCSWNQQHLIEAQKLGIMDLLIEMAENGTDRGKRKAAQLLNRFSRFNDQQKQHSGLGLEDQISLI

[5] = target: T5, PUB13 (yeast two-hybrid fusion, BD) (Arabidopsis thaliana) (UniProt Q9SNC6)
T5 sequence: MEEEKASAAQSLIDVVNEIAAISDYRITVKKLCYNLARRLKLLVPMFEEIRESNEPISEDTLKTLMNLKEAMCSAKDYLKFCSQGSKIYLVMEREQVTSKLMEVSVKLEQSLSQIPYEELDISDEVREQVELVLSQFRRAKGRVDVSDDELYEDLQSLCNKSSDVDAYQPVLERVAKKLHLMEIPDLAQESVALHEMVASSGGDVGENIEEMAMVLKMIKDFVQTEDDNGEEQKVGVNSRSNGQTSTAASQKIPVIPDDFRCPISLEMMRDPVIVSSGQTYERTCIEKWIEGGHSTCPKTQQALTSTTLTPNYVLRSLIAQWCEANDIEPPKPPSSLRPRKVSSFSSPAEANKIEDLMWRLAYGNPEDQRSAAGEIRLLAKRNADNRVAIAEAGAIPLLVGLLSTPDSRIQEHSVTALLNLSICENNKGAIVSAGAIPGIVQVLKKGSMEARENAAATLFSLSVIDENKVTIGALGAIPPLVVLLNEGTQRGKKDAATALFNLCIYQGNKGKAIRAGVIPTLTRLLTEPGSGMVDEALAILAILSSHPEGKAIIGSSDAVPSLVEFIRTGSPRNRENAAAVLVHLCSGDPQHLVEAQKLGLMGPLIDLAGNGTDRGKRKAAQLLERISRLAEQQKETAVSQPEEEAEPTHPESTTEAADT

Measured: binding

ABI1 (yeast two-hybrid fusion, AD) (from UniProt P49597 1-434)
binds: all assays above
